# A collection of fitness landscapes (doi:10.1126/science.1257360)
# The list shows a part of the results.
# B1: PhoQ; a variant is named by its letters at X, in order, P23837 (parent)
# chain: MKKLLRLFFPLSLRVRFLLATAAVVLVLSLAYGMVALIGYSVSFDKTTFRLLRGESNLFYTLAKWENNKLHVELPENIDKQSPTMTLIYDENGQLLWAQRDVPWLMKMIQPDWLKSNGFHEIEADVNDTSLLLSGDHSIQQQLQEVREDDDDAEMTHSVAVNVYPATSRMPKLTIVVVDTIPVELKSSYMVWSWFIYVLSANLLLVIPLLWVAAWWSLRPIEALAKEVRELEEHNRELLNPATTRELTSLVRNLNRLLKSERERYDKYRTTLTDLTHSLKTPLXXLQXXLRSLRSEKMSVSDAEPVMLEQISRISQQIGYYLHRASMRGGTLLSRELHPVAPLLDNLTSALNKVYQRKGVNISLDISPEISFVGEQNDFVEVMGNVLDNACKYCLEFVEISARQTDEHLYIVVEDDGPGIPLSKREVIFDRGQRVDTLRPGQGVGLAVAREITEQYEGKIVAGESMLGGARMEVIFGRQHSAPKDE
# Variants of: B1
# Assay: enrichment ratio after two sorts for PhoP signalling (ratio (wild type AVST 3.29)); higher = more functional
# Settings: with PhoP (E. coli)
row,Variant,enrichment ratio
1,YAVQ,≤ 0.25
2,IKFI,≤ 0.25
3,NECT,14.1
4,KQCM,≤ 0.25
5,FDHR,≤ 0.25
6,QVCY,≤ 0.25
7,TAYP,≤ 0.25
8,SFPL,≤ 0.25
9,TTDF,16.9
10,LEVM,0.945
11,WFIN,≤ 0.25
12,FVTI,≤ 0.25
13,KHIC,≤ 0.25
14,PTIT,≤ 0.25
15,SHEY,≤ 0.25
16,LDDQ,≤ 0.25
17,SAGL,6.17
18,AIVT,4.68
19,TTTA,5.71
20,AFGG,≤ 0.25
21,PTYQ,≤ 0.25
22,LSAQ,≤ 0.25
23,LTSP,≤ 0.25
24,SQEL,≤ 0.25

row,Variant,enrichment ratio
1,IFIF,≤ 0.25
2,LDDF,≤ 0.25
3,EDYQ,≤ 0.25
4,PGMA,≤ 0.25
5,FIAW,≤ 0.25
6,QARW,≤ 0.25
7,NSGL,≤ 0.25
8,ENCR,≤ 0.25
9,GPCC,≤ 0.25
10,RDYS,≤ 0.25
11,IICA,≤ 0.25
12,LFNW,≤ 0.25
13,KYNV,≤ 0.25
14,WQMH,≤ 0.25
15,SQSE,11.4
16,MCMQ,5.75
17,YTQY,≤ 0.25
18,HCFF,≤ 0.25
19,YWYY,≤ 0.25
20,DMVT,≤ 0.25
21,HMEV,≤ 0.25
22,FQHT,≤ 0.25
23,WNVH,≤ 0.25
24,LHDQ,≤ 0.25

row,Variant,enrichment ratio
1,IDRK,≤ 0.25
2,ESSK,≤ 0.25
3,AMCS,5.27
4,HEFK,≤ 0.25
5,DFQI,≤ 0.25
6,ELVA,≤ 0.25
7,QSTQ,≤ 0.25
8,LRAS,≤ 0.25
9,ELQH,≤ 0.25
10,TDHD,≤ 0.25
11,SSAF,7.52
12,NVDL,≤ 0.25
13,KSQT,≤ 0.25
14,YYIT,≤ 0.25
15,EQVG,≤ 0.25
16,HISC,≤ 0.25
17,MKAG,≤ 0.25
18,PPKY,≤ 0.25
19,TNPW,≤ 0.25
20,PTVL,≤ 0.25
21,ITPV,≤ 0.25
22,FMLH,0.413
23,RRCC,≤ 0.25
24,YPQL,≤ 0.25

row,Variant,enrichment ratio
1,DAWP,≤ 0.25
2,WGYH,≤ 0.25
3,ENTA,≤ 0.25
4,TFIW,≤ 0.25
5,GSHH,≤ 0.25
6,AQWK,≤ 0.25
7,GCDA,≤ 0.25
8,SMKV,≤ 0.25
9,FEEL,≤ 0.25
10,SRQM,≤ 0.25
11,SVMD,3.38
12,GSSQ,8.65
13,VCFV,≤ 0.25
14,FGPI,≤ 0.25
15,IKYC,≤ 0.25
16,YNLP,≤ 0.25
17,SDFC,≤ 0.25
18,GLHW,≤ 0.25
19,IAPA,≤ 0.25
20,IDAG,≤ 0.25
21,IIEC,≤ 0.25
22,FDQT,≤ 0.25
23,FMYK,≤ 0.25
24,KCEN,≤ 0.25

row,Variant,enrichment ratio
1,KTHI,≤ 0.25
2,MFQS,≤ 0.25
3,SWVT,≤ 0.25
4,LSTQ,≤ 0.25
5,VCGF,≤ 0.25
6,TEHD,≤ 0.25
7,KCVF,≤ 0.25
8,SRWV,≤ 0.25
9,QVFY,≤ 0.25
10,IDPM,≤ 0.25
11,WDNK,≤ 0.25
12,GQVA,≤ 0.25
13,YSEP,≤ 0.25
14,IPFK,≤ 0.25
15,SKTM,6.18
16,FHWK,≤ 0.25
17,WCPM,≤ 0.25
18,AATV,6.21
19,GDTR,≤ 0.25
20,HSFN,≤ 0.25
21,GKSY,≤ 0.25
22,DVPP,≤ 0.25
23,QHFH,≤ 0.25
24,PKTN,≤ 0.25

row,Variant,enrichment ratio
1,SFGP,≤ 0.25
2,KITS,≤ 0.25
3,AELH,11.9
4,RVVK,≤ 0.25
5,YAHM,≤ 0.25
6,WSEM,≤ 0.25
7,FNNP,≤ 0.25
8,RGAI,≤ 0.25
9,SGIK,≤ 0.25
10,PFKG,≤ 0.25
11,PMSL,≤ 0.25
12,FKAT,≤ 0.25
13,TQCA,17.6
14,AYNW,≤ 0.25
15,DSCV,≤ 0.25
16,RKFT,≤ 0.25
17,NFGI,≤ 0.25
18,WNGH,≤ 0.25
19,GQYC,≤ 0.25
20,GGFY,≤ 0.25
21,QMMM,≤ 0.25
22,KKLA,≤ 0.25
23,AGDV,≤ 0.25
24,SIGK,4.3

row,Variant,enrichment ratio
1,LWEN,≤ 0.25
2,ENMM,≤ 0.25
3,SRRR,≤ 0.25
4,EMTA,≤ 0.25
5,GSQD,≤ 0.25
6,GHKS,≤ 0.25
7,TDTT,3.25
8,VIYL,≤ 0.25
9,TTNY,25.4
10,LSFK,≤ 0.25
11,KYHD,≤ 0.25
12,NSQW,≤ 0.25
13,KVQA,≤ 0.25
14,EAES,≤ 0.25
15,WEKI,≤ 0.25
16,TKWN,≤ 0.25
17,QMTR,≤ 0.25
18,PYSK,≤ 0.25
19,KKEI,≤ 0.25
20,YTEV,≤ 0.25
21,MWAN,≤ 0.25
22,SCAF,16.3
23,YGPA,≤ 0.25
24,EMFA,≤ 0.25

row,Variant,enrichment ratio
1,YVKL,≤ 0.25
2,LNLI,≤ 0.25
3,SFKM,≤ 0.25
4,NPSC,≤ 0.25
5,TNGI,15.2
6,APGM,≤ 0.25
7,YKAW,≤ 0.25
8,MCKW,≤ 0.25
9,TNPL,≤ 0.25
10,RFPQ,≤ 0.25
11,TRDQ,≤ 0.25
12,FCNQ,≤ 0.25
13,TNKW,≤ 0.25
14,TGNR,≤ 0.25
15,HRVQ,≤ 0.25
16,DMDI,≤ 0.25
17,VLYD,≤ 0.25
18,HEFL,≤ 0.25
19,IELM,10
20,PKWI,≤ 0.25
21,LHPF,≤ 0.25
22,MAWP,≤ 0.25
23,MLDW,≤ 0.25
24,DRKM,≤ 0.25

row,Variant,enrichment ratio
1,MRDW,≤ 0.25
2,QTYW,≤ 0.25
3,GRFW,≤ 0.25
4,GILE,4.81
5,SIDN,≤ 0.25
6,RNCI,≤ 0.25
7,HSDR,≤ 0.25
8,IVHF,≤ 0.25
9,YKVV,≤ 0.25
10,FECG,30.4
11,PRVN,≤ 0.25
12,DMIP,≤ 0.25
13,SRCA,≤ 0.25
14,KVCC,≤ 0.25
15,ITCD,≤ 0.25
16,ALFI,≤ 0.25
17,YEKG,≤ 0.25
18,GCVP,≤ 0.25
19,MGYT,10.8
20,KNQC,≤ 0.25
21,KKFE,≤ 0.25
22,DAHC,≤ 0.25
23,EWLH,≤ 0.25
24,GCCP,≤ 0.25

row,Variant,enrichment ratio
1,AQIY,24
2,FIPQ,≤ 0.25
3,DCEA,≤ 0.25
4,PEFM,≤ 0.25
5,QPRT,≤ 0.25
6,WTIG,≤ 0.25
7,KPVV,≤ 0.25
8,CLII,≤ 0.25
9,PLQC,≤ 0.25
10,VVLY,≤ 0.25
11,MRNK,≤ 0.25
12,SADV,≤ 0.25
13,YFHD,≤ 0.25
14,YICR,≤ 0.25
15,WLVF,≤ 0.25
16,DKCW,≤ 0.25
17,RRQL,≤ 0.25
18,KIGY,≤ 0.25
19,VEWT,≤ 0.25
20,WVRR,≤ 0.25
21,DHDE,≤ 0.25
22,KLRW,≤ 0.25
23,ERLI,≤ 0.25
24,DERV,≤ 0.25

row,Variant,enrichment ratio
1,PSFP,≤ 0.25
2,YWEF,≤ 0.25
3,MLII,≤ 0.25
4,PFHT,≤ 0.25
5,PACS,≤ 0.25
6,FAAE,≤ 0.25
7,YVMP,≤ 0.25
8,KDIK,≤ 0.25
9,NAYN,≤ 0.25
10,TLIP,≤ 0.25
11,PHQI,≤ 0.25
12,SDYY,≤ 0.25
13,NYDR,≤ 0.25
14,NTAP,≤ 0.25
15,FFWM,≤ 0.25
16,YDGK,≤ 0.25
17,HRYG,≤ 0.25
18,AASF,10.1
19,VLQR,≤ 0.25
20,AKNY,≤ 0.25
21,VVEV,≤ 0.25
22,YCIT,≤ 0.25
23,TFII,≤ 0.25
24,WPMV,≤ 0.25

row,Variant,enrichment ratio
1,SEVA,10.3
2,SCWC,≤ 0.25
3,NDDI,≤ 0.25
4,PVLL,≤ 0.25
5,RPSH,≤ 0.25
6,ADIV,12.5
7,FWRP,≤ 0.25
8,SEHA,≤ 0.25
9,SHQD,≤ 0.25
10,LQPM,≤ 0.25
11,EQAM,≤ 0.25
12,FYPS,≤ 0.25
13,YWNK,≤ 0.25
14,AEMY,20.4
15,NWKP,≤ 0.25
16,PYIP,≤ 0.25
17,MTLQ,10.8
18,HMMK,≤ 0.25
19,PFLF,≤ 0.25
20,QFIR,≤ 0.25
21,NSHN,≤ 0.25
22,VVEF,≤ 0.25
23,RYWQ,≤ 0.25
24,QSVF,≤ 0.25

row,Variant,enrichment ratio
1,EIAA,≤ 0.25
2,MPKE,≤ 0.25
3,QLTR,≤ 0.25
4,LQQY,≤ 0.25
5,ECHI,≤ 0.25
6,ECDS,≤ 0.25
7,NFNI,≤ 0.25
8,RQVG,≤ 0.25
9,LRHF,≤ 0.25
10,SANT,≤ 0.25
11,RPDS,≤ 0.25
12,YPII,≤ 0.25
13,TIEL,1.01
14,RCPY,≤ 0.25
15,FFAQ,≤ 0.25
16,ELYD,≤ 0.25
17,RPLP,≤ 0.25
18,HSIS,≤ 0.25
